Source: the supplement of paper PMC4604168 (melanoma cell lines)
The other results are listed elsewhere or left out. Single values are uncertain, as repeats are few or missing.

Tested on: COLO792
Test: cell count relative to DMSO control; melanoma cells; higher = more viable cells
Conditions: library dose: low library concentration; 72 h
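Further: cell number obtained by counting DAPI-stained nuclei in high-throughput microscope images with image analysis software, screen run in 1,536-well plates.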

| Structure (SMILES) | cell count |
| --- | --- |
| C[C@]12O[C@H](C[C@]1(O)CO)n1c3ccccc3c3c4c(c5c6ccccc6n2c5c31)CNC4=O [Lestaurtinib] + CCN(CC)CCNC(=O)c1c(C)[nH]c(/C=C2\C(=O)Nc3ccc(F)cc32)c1C [sunitinib] (first compound 0.004 µM, partner dose 0.4 µM) | 73.6% |
| C[C@]12O[C@H](C[C@]1(O)CO)n1c3ccccc3c3c4c(c5c6ccccc6n2c5c31)CNC4=O [Lestaurtinib] + CS(=O)(=O)c1ccc(C(=O)Nc2ccc(Cl)c(-c3ccccn3)c2)c(Cl)c1 [vismodegib] (first compound 0.004 µM, partner dose 1 µM) | 82.2% |
| C[As](C)SC[C@H](NC(=O)CC[C@H](N)C(=O)O)C(=O)NCC(=O)O [Darinaparsin] + Cn1cc(/C=C2\C(=O)Nc3cccnc32)c2ccccc21 [GW441756] (first compound 0.4 µM, partner dose 0.4 µM) | 101% |
| C[C@]12O[C@H](C[C@]1(O)CO)n1c3ccccc3c3c4c(c5c6ccccc6n2c5c31)CNC4=O [Lestaurtinib] + CC(=O)c1c(C)c2cnc(Nc3ccc(N4CCNCC4)cn3)nc2n(C2CCCC2)c1=O [palbociclib] (first compound 0.004 µM, partner dose 0.04 µM) | 79.6% |
| C[C@]12O[C@H](C[C@]1(O)CO)n1c3ccccc3c3c4c(c5c6ccccc6n2c5c31)CNC4=O [Lestaurtinib] + Nc1nc(F)nc2c1ncn2[C@@H]1O[C@H](CO)[C@@H](O)[C@@H]1O [fludarabine] (first compound 0.004 µM, partner dose 0.2 µM) | 97.1% |
| Cn1cc(C2=C(c3cn(C4CCN(Cc5ccccn5)CC4)c4ccccc34)C(=O)NC2=O)c2ccccc21 [Enzastaurin] + C[C@]12O[C@H](C[C@]1(O)CO)n1c3ccccc3c3c4c(c5c6ccccc6n2c5c31)CNC4=O [Lestaurtinib] (first compound 0.8 µM, partner dose 0.004 µM) | 89% |
| C[C@]12O[C@H](C[C@]1(O)CO)n1c3ccccc3c3c4c(c5c6ccccc6n2c5c31)CNC4=O [Lestaurtinib] + CS(=O)(=O)CCNCc1ccc(-c2ccc3ncnc(Nc4ccc(OCc5cccc(F)c5)c(Cl)c4)c3c2)o1 [lapatinib] (first compound 0.004 µM, partner dose 0.8 µM) | 91.1% |
| C[C@]12O[C@H](C[C@]1(O)CO)n1c3ccccc3c3c4c(c5c6ccccc6n2c5c31)CNC4=O [Lestaurtinib] + Clc1ccc(Nc2nnc(Cc3ccncc3)c3ccccc23)cc1 [vatalanib] (first compound 0.004 µM, partner dose 2 µM) | 94.4% |
| C[C@]12O[C@H](C[C@]1(O)CO)n1c3ccccc3c3c4c(c5c6ccccc6n2c5c31)CNC4=O [Lestaurtinib] + Cc1cc(Nc2cc(N3CCN(C)CC3)nc(/C=C/c3ccccc3)n2)n[nH]1 [ENMD2076] (first compound 0.004 µM, partner dose 0.04 µM) | 89.6% |
| C[C@]12O[C@H](C[C@]1(O)CO)n1c3ccccc3c3c4c(c5c6ccccc6n2c5c31)CNC4=O [Lestaurtinib] + C#Cc1cccc(Nc2ncnc3cc(OCCOC)c(OCCOC)cc23)c1 [erlotinib] (first compound 0.004 µM, partner dose 0.8 µM) | 68.7% |
| C[C@]12O[C@H](C[C@]1(O)CO)n1c3ccccc3c3c4c(c5c6ccccc6n2c5c31)CNC4=O [Lestaurtinib] + Nc1ncn([C@H]2C[C@H](O)[C@@H](CO)O2)c(=O)n1 [decitabine] (first compound 0.004 µM, partner dose 0.1 µM) | 72.5% |
| C[C@]12O[C@H](C[C@]1(O)CO)n1c3ccccc3c3c4c(c5c6ccccc6n2c5c31)CNC4=O [Lestaurtinib] + COCC[n+]1c2c(n(Cc3cnccn3)c1C)C(=O)c1ccccc1C2=O [YM155] (first compound 0.004 µM, partner dose 0.0004 µM) | 100% |
| C[As](C)SC[C@H](NC(=O)CC[C@H](N)C(=O)O)C(=O)NCC(=O)O [Darinaparsin] + COC(=O)c1sccc1S(=O)(=O)Nc1ccc(Nc2ccccc2)cc1OC [GSK0660] (first compound 0.4 µM, partner dose 1 µM) | 94.7% |
| C[C@]12O[C@H](C[C@]1(O)CO)n1c3ccccc3c3c4c(c5c6ccccc6n2c5c31)CNC4=O [Lestaurtinib] + C[C@]1(c2nc3c(C(N)=O)cccc3[nH]2)CCCN1 [Veliparib] (first compound 0.004 µM, partner dose 1.4 µM) | 110% |
| C[As](C)SC[C@H](NC(=O)CC[C@H](N)C(=O)O)C(=O)NCC(=O)O [Darinaparsin] + O=C(Oc1ccc([N+](=O)[O-])cc1)N1CCC(C(O)(c2ccc3c(c2)OCO3)c2ccc3c(c2)OCO3)CC1 [JZL184] (first compound 0.4 µM, partner dose 1 µM) | 109% |
